The source of these data is the supplement of paper PMC12645437, “Orthogonal IMiD-Degron Pairs Induce Selective Protein Degradation in Cells” (ACS Chemical Biology, 2025).

The list shows a part of the results.
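Further: jurkat cells carrying a lentiviral library of mutant zinc finger degrons fused to EGFP plus mCherry, mCherry+ cells FACS sorted, degron abundance counted by next-generation sequencing.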

The target in the test is no compound (DMSO). Briefly: log2 fold change of degron read counts, EGFP-low vs EGFP+ sorted cells; higher = lower degron-EGFP level without compound (poor expression or instability). The note with it: compound: DMSO control; 18 h.
As for FDCPQCGAAFTQKGNLLRHIKL, the “log2 fold change of degron read counts” value is -1.43.

Consider FDCNQCGRKFTQKGNLLRHIKL, for which the “log2 fold change of degron read counts” value was determined as 0.0364.

Regarding FECDQCGAVFTQKGNLLRHIKL, the “log2 fold change of degron read counts” value was -2.91.

As for FKCDQCGAFFTQKGNLLRHIKL, the “log2 fold change of degron read counts” value was -0.556.

Take FLCDICGARFTQKGNLLRHIKL: the “log2 fold change of degron read counts” value was -1.63.

Consider FQCNVCGAGFTQKGNLLRHIKL, for which the “log2 fold change of degron read counts” value was -1.35.

With LDCPICGFNCTQKGNLLRHIKL, the “log2 fold change of degron read counts” value was 0.803.

Consider FECEICGRKFTQKGNLLRHIKL, for which the “log2 fold change of degron read counts” value was -1.84.

As for FTCNICGAWFTQKGNLLRHIKL, the “log2 fold change of degron read counts” value was determined as 0.544.

As for FWCNVCGAVFTQKGNLLRHIKL, the “log2 fold change of degron read counts” value came out at 0.987.

For FSCNICGAMFTQKGNLLRHIKL, the “log2 fold change of degron read counts” value is -0.197.

For the sequence FYCNICGAGFTQKGNLLRHIKL, the “log2 fold change of degron read counts” value is -0.138.

For FHCPICGHSFTQKGNLLRHIKL, the “log2 fold change of degron read counts” value was -1.5.

As to FHCPQCGAQFTQKGNLLRHIKL, the “log2 fold change of degron read counts” value is -1.85.

Turning to FACEICGANFTQKGNLLRHIKL, the “log2 fold change of degron read counts” value was -1.65.

Take FMCEICGAQFTQKGNLLRHIKL: the “log2 fold change of degron read counts” value was -1.95.

For FTCPICGRKFTQKGNLLRHIKL, the “log2 fold change of degron read counts” value was -0.401.

For the sequence FYCNICGAQFTQKGNLLRHIKL, the “log2 fold change of degron read counts” value is -0.421.

Turning to LMCPICGFLCTQKGNLLRHIKL, the “log2 fold change of degron read counts” value was 1.66.

As for FCCEICGASFTQKGNLLRHIKL, the “log2 fold change of degron read counts” value is -1.45.

For the sequence LECPICGFDCTQKGNLLRHIKL, the “log2 fold change of degron read counts” value is -0.246.

Regarding FACPQCGAEFTQKGNLLRHIKL, the “log2 fold change of degron read counts” value is -2.46.

As to FECNICGAEFTQKGNLLRHIKL, the “log2 fold change of degron read counts” value is -2.41.

On to LNCNQCGFACTQKGNLLRHIKL, for which the “log2 fold change of degron read counts” value turned out to be 1.1.

For FGCPICGRHFTQKGNLLRHIKL, the “log2 fold change of degron read counts” value was -0.593.

Take FLCNVCGAMFTQKGNLLRHIKL: the “log2 fold change of degron read counts” value was -0.298.

For FKCNVCGAVFTQKGNLLRHIKL, the “log2 fold change of degron read counts” value is -1.28.

As for FLCSVCGHSFTQKGNLLRHIKL, the “log2 fold change of degron read counts” value was -0.841.

Take FCCPQCGATFTQKGNLLRHIKL: the “log2 fold change of degron read counts” value is -1.26.

In the case of FRCPICGAPFTQKGNLLRHIKL, the “log2 fold change of degron read counts” value worked out at 0.575.

Consider FDCPVCGAVFTQKGNLLRHIKL, for which the “log2 fold change of degron read counts” value was -0.199.

On to FVCPICGAEFTQKGNLLRHIKL, for which the “log2 fold change of degron read counts” value was -0.362.

As for FSCEICGAQFTQKGNLLRHIKL, the “log2 fold change of degron read counts” value was -1.48.

For the sequence FRCPICGRMFTQKGNLLRHIKL, the “log2 fold change of degron read counts” value was found to be 0.215.

As to LSCPICGFACTQKGNLLRHIKL, the “log2 fold change of degron read counts” value came out at 0.657.

Regarding FQCEICGRWFTQKGNLLRHIKL, the “log2 fold change of degron read counts” value is -0.413.

Consider LKCPICGFSCTQKGNLLRHIKL, for which the “log2 fold change of degron read counts” value was determined as 0.45.

As for FYCPICGRYFTQKGNLLRHIKL, the “log2 fold change of degron read counts” value is -2.56.

Regarding FNCEICGAKFTQKGNLLRHIKL, the “log2 fold change of degron read counts” value is -1.49.

On to LNCPICGFSCTQKGNLLRHIKL, for which the “log2 fold change of degron read counts” value worked out at 0.336.

As for FACPICGHWFTQKGNLLRHIKL, the “log2 fold change of degron read counts” value came out at 0.6.

Turning to FMCEICGHPFTQKGNLLRHIKL, the “log2 fold change of degron read counts” value was -0.354.

Regarding FQCDICGARFTQKGNLLRHIKL, the “log2 fold change of degron read counts” value is -2.23.

LTCEICGFICTQKGNLLRHIKL: the “log2 fold change of degron read counts” value amounted to 0.407.

In the case of FACNQCGRGFTQKGNLLRHIKL, the “log2 fold change of degron read counts” value turned out to be 0.221.

As for FLCPVCGALFTQKGNLLRHIKL, the “log2 fold change of degron read counts” value was determined as 0.44.

Turning to FKCPICGHYFTQKGNLLRHIKL, the “log2 fold change of degron read counts” value was -0.0387.

For the sequence FFCDICGAFFTQKGNLLRHIKL, the “log2 fold change of degron read counts” value is -0.172.

On to FMCPQCGASFTQKGNLLRHIKL, for which the “log2 fold change of degron read counts” value is -1.16.

Take FTCNQCGHRFTQKGNLLRHIKL: the “log2 fold change of degron read counts” value is 0.217.
